Data set [1] can be described thus: Liver microsome stability. Conditions: rat liver microsomes, drug 1.00 μM.
Data set [2] is described as follows: Liver microsome stability. Conditions: human liver microsomes, drug 1.00 μM.
The conditions of data set [3]: mouse, in vivo, po.

In the case of `CC(C)C(=O)OC[C@@]1(F)O[C@@H](n2ccc(=O)[nH]c2=O)[C@H](OC(=O)C(C)C)[C@@H]1OC(=O)C(C)C` [EIDD-2954, [(2S,3S,4R,5R)-5-(2,4-dioxopyrimidin-1-yl)-2-fluoro-3,4-bis(2-methylpropanoyloxy)tetrahydrofuran-2-yl]methyl 2-methylpropanoate], the half-life in data set [1] is given as less than 1 min.

`O=c1ccn([C@@H]2O[C@](F)(CO)[C@@H](O)[C@H]2O)c(=O)[nH]1` [EIDD-2749, 4′-fluorouridine]: the half-life in data set [2] turned out to be 0.367 h. In data set [3] (female, ICR (CD-1)), the “t1/2, EIDD-2991 in brain” value is given as 10.7 h and the “t1/2, EIDD-2991 in heart” value was found to be 18.0 h.

For the compound `CC(C)OC(=O)[C@H](C)N[P@](=O)(OC[C@@]1(F)O[C@@H](n2ccc(=O)[nH]c2=O)[C@H](O)[C@@H]1O)Oc1ccccc1` [EIDD-3232, isopropyl ((S)-(((2S,3S,4R,5R)-5-(2,4-dioxo-3,4-dihydropyrimidin-1(2H)-yl)-2-fluoro-3,4-dihydroxytetrahydrofuran-2-yl)methoxy)(phenoxy)phosphoryl)-L-alaninate], in data set [3] (female, ICR (CD-1)), the “Tmax, EIDD-2991 in brain” value was 4 h; the “Tmax, EIDD-2991 in heart” value is given as 2 h; the “t1/2, EIDD-2991 in brain” value is on record as 9.81 h. Moreover, in data set [3], the “AUC24, EIDD-2991 in brain” value amounted to 7.06 nmol·h/g; the “AUC24, EIDD-2991 in heart” value turned out to be 75.6 nmol·h/g; the “AUCinf, EIDD-2991 in brain” value amounted to 12.0 nmol·h/g; the “AUCinf, EIDD-2991 in heart” value worked out at 137 nmol·h/g. Further, in data set [3], the “Cmax, EIDD-2991 in brain” value is 0.356 nmol/g and the “Cmax, EIDD-2991 in heart” value was 6.22 nmol/g.

For the origin of these results see US20260124226A1 (priority 2023, published 2026).
